# Laboratory results reported in publication PMC10668032.
# Some of the results follow. At the low end of the ranking the order means little.
# Molecular target: SIX1 homeodomain (reference allele) (UniProt Q15475)
# Assay: universal protein binding microarray
# Settings: Universal all-10-mer PBM (8x60K, AMADID 030236), 300 nM GST-tagged protein, Alexa Fluor 488 anti-GST; buffer, salt, pH and temperature not stated; high values mean tight binding; most listed sequences are background and not binding sites; double strand, one strand shown
row,Sequence,binding signal
1,CGCTAACA,-0.121 E-score
2,ATGGTAAG,-0.0376 E-score
3,AAGGGTTG,-0.12 E-score
4,CCGATGCG,0.215 E-score
5,CTTAACTA,-0.0135 E-score
6,CATATTCA,0.0617 E-score
7,CACAAGGG,-0.0104 E-score
8,GGGCATCA,0.109 E-score
9,CCCAAAAC,0.0568 E-score
10,AGATTCTA,-0.0391 E-score
11,CGAGTCCG,-0.162 E-score
12,AGTAGCAT,0.0466 E-score
13,AACGATGT,-0.135 E-score
14,CCAAATAG,-0.0162 E-score
15,CAGGTATC,0.464 E-score
16,GGAATACA,0.035 E-score
17,GATATCGA,0.42 E-score
18,AATTTCAG,-0.321 E-score
19,AATAAGCC,-0.152 E-score
20,ACTACAAT,0.00924 E-score
21,AAGATATC,0.445 E-score
22,ATCGTCGG,0.0772 E-score

row,Sequence,binding signal
1,AGACAGCC,-0.214 E-score
2,ATCTCCCC,0.249 E-score
3,AATTCAAG,-0.071 E-score
4,CACTGGAC,-0.115 E-score
5,AATACTCG,0.165 E-score
6,AATTACCG,-0.11 E-score
7,ATGTCCCA,-0.18 E-score
8,GAATTTGC,-0.0839 E-score
9,AAATCGGG,-0.0204 E-score
10,GCGGGGAA,-0.114 E-score
11,AGGTCACG,-0.176 E-score
12,ACGACATG,-0.142 E-score
13,AGCCACTC,-0.0841 E-score
14,CCCAGGTC,-0.162 E-score
15,CATATGTC,0.0736 E-score
16,CTCTGTGC,-0.09 E-score
17,AAGGGACC,-0.0884 E-score
18,AGGACAAC,-0.076 E-score
19,CGTACCGC,0.0254 E-score
20,GATCCTCC,0.381 E-score
21,AATTAACA,-0.0919 E-score
22,GCCTCCAA,-0.158 E-score

row,Sequence,binding signal
1,CACATCGA,-0.174 E-score
2,CCCCTCCA,0.215 E-score
3,ACAACGGC,-0.196 E-score
4,GTGTGCGA,-0.139 E-score
5,CTGGTTCC,-0.319 E-score
6,AACGTTTC,-0.15 E-score
7,CTTAACAA,-0.144 E-score
8,AAACTAGG,0.0144 E-score
9,AGTTCCTC,-0.338 E-score
10,CACACTTA,-0.0661 E-score
11,GTCCCGGA,-0.0696 E-score
12,GCGCTACC,-0.222 E-score
13,AAGAGGGG,-0.0356 E-score
14,CTGGCGTC,-0.17 E-score
15,GTAAGCAC,-0.224 E-score
16,CATTATCG,-0.0406 E-score
17,CGGTCTAG,-0.0274 E-score
18,GAATACGC,0.121 E-score
19,ATCGCGTG,0.311 E-score
20,AGACCATA,0.19 E-score
21,AGCTTGCG,-0.249 E-score
22,AAGTTCAG,-0.0682 E-score

row,Sequence,binding signal
1,CTAGAGGA,-0.0624 E-score
2,ACGCTACA,-0.0503 E-score
3,CCTTAAGA,-0.112 E-score
4,AGCTTCAC,-0.213 E-score
5,TGAGGACA,-0.0627 E-score
6,CGTACTAA,-0.00533 E-score
7,CCCATGGG,0.152 E-score
8,CTACGTCC,-0.0752 E-score
9,GCAGGCTA,-0.0332 E-score
10,CACAGGAG,-0.00275 E-score
11,GAACTAAC,-0.171 E-score
12,TAATTAAA,-0.00652 E-score
13,GACGCAAC,-0.182 E-score
14,GTCGCAAA,-0.169 E-score
15,CATCGCAC,0.0772 E-score
16,CGGTACAG,0.129 E-score
17,CATAAGTC,-0.234 E-score
18,AGCACGTC,-0.201 E-score
19,CACTCAGA,0.0324 E-score
20,GGAACAAA,0.0244 E-score
21,ACGAGTAC,-0.0781 E-score
22,GCCCCGAA,0.0298 E-score

row,Sequence,binding signal
1,AATGACAC,0.297 E-score
2,GACAGGCC,-0.0859 E-score
3,ACTTTTAG,-0.0786 E-score
4,CGCCAATC,-0.068 E-score
5,ACGTCCCC,-0.119 E-score
6,GAATTTCC,-0.337 E-score
7,CTGCCAAC,-0.127 E-score
8,CCCATAAG,0.0605 E-score
9,GACCGGAA,-0.146 E-score
10,CATTTTAC,-0.0112 E-score
11,AGGATCCT,0.385 E-score
12,GAACATAC,-0.0419 E-score
13,TACGCGCA,0.174 E-score
14,ACGTAGTA,0.0197 E-score
15,AGCTTCCA,-0.208 E-score
16,AATGCCCT,-0.223 E-score
17,GCTCGGCC,-0.135 E-score
18,CTATGCCC,0.0179 E-score
19,TGATTACA,-0.0151 E-score
20,ACCTCGCC,-0.0512 E-score
21,ACGCTGAC,-0.0412 E-score
22,TCTACAAA,-0.218 E-score
